{"source": "PubChem BioAssay (NCATS)", "note": "Inconclusive results, whose numbers are uncertain, are shown with a selection of clear calls. No potency is given beside an inconclusive call; the fits are too rough. Activity calls are given as the source filed them. Calls follow the shape of the dose curve; as a rule, active = well fitted inhibition curve with a large enough effect; inconclusive = small, poorly fitted or top-dose-only effect; inactive = no such curve, though single readings can be large or run the other way. Numbered stars: 1 amine (or outer) side, 2 acyl side, 3 side chain; on linkers, the order of the positions; unused ones are H or OH. Bridge positions count the residues as written; N and C are the ends. Square brackets hold non-standard residues; d marks the D form. Peptide text beside a SMILES is read from it. * marks the point of attachment. pTerphenylCO(4''-OnC5H11) = CCCCCOc1ccc(-c2ccc(-c3ccc(C(=O)*)cc3)cc2)cc1; Orn(4R-OH,5R-OH) = O=C([C@H](C[C@@H](O)[C@@H](O)N[*:3])N[*:1])[*:2]; hTyr(3S-OH,4S-OH) = N[C@H](C(=O)O)[C@H](O)[C@@H](O)c1ccc(O)cc1; Pro(3S-OH,4S-Me) = C[C@H]1CN[C@H](C(=O)O)[C@H]1O; Hyp = O=C(O)[C@@H]1C[C@@H](O)CN1", "data": [{"target": "N-terminal Xaa-Pro-Lys N-methyltransferase 1 (Homo sapiens) (UniProt Q9BV86)", "sequence (Q9BV86 whole entry, looked up)": "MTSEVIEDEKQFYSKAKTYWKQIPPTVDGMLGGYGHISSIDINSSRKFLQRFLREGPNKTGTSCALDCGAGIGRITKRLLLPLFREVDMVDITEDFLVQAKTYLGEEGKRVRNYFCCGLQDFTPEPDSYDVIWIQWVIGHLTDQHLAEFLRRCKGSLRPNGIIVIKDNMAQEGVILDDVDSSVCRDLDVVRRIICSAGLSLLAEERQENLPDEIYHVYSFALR", "assay": "Confirmatory qHTS for Inhibitors of N-terminal methyltransferase 1 (NTMT1): MTaseGlo Assay (AID 1645874); also: nearly all actives have a fitted effect of over 65% in size; also: potency is read from the fitted curve at half-maximal effect; tags tell the direction and shape of the fitted curve", "settings": "NTMT1 enzyme, MTase-Glo SAH luminescence; series mostly up to 100 µM; activity change, negative = inhibition: at the top concentration", "source_text": "Assay Submitter (PI): Rong Huang Ph.D.\nPurdue University, West Lafayette, IN 47907\nThe N-terminal methytransferase 1 is the first methyltransferase that methylates protein alpha-N-amines and plays an important role in regulating cell mitosis, chromatin interactions and DNA repair. It is observed to be over-expressed in various cancer patient tissues like malignant melanoma and colorectal cancer tissues. Knockdown of NTMT1 in cancer cells causes cell mitotic defects and enhances sensitivity to DNA damaging chemotherapeutics. […] These critical cellular processes in which NTMT1 is implicated, coupled with emerging links to cellular dysfunction, strengthen the inference that NTMT1 is a compelling novel anticancer target. Progress have been made in understanding the molecular properties of NTMT1 and the biological consequences of protein alpha-N-terminal methylation, but there are no specific small molecule probes available for NTMT1 to fully characterize its MTase activity. To address this unmet need, a panel of assay is created and established to enable quantitative high-throughput screening (qHTS) for novel, potent, and selective small molecule NTMT1 inhibitors. Two orthogonal qHTS that use different reagents (ThioGlo vs. MTaseGlo) are developed for primary robotic screening against the NCATS chemical library of more than 400,000 small molecules. Identified inhibitors are reacquired, validated, and further characterized.\nMTaseGlo Assay is a luminescence screen that measure the activity of methyltransferases based on the reaction product S-adenosyl homocysteine (SAH). The substrate SAM is converted to SAH upon enzyme activation. MTase-Glo reagent and detection solution convert SAH to ATP and measure the light from the luciferase reaction.\nMaterials: NTMT1 enzyme, substrate SPKRIA, control peptide RCC1-6 is provided by the Huang laboratory.\nSEQUENCE No. (e.g., 1, 2, 3, etc.); […] (e.g., Cells, Incubation, Reagent, etc.); VALUE; DESCRIPTION\n1; Enzyme; 3 uL; Dispense enzyme mixture (final concentrations of 125 nM NTMT1 and 100 uM SAM) into Greiner 1536-well white / solid bottom assay plate (Greiner Bio One, Monroe, NC).\n2; Compounds; 23 nL; Compounds and controls were transferred via a Kalypsys Pin Tool (Wako USA) equipped with a 1536-slotted pin array (Wako Automation, Richmond, VA)\n3; Incubation; 15 min; Incubate at room temperature\n4; Substrate; 1 uL; Dispense 1 uL of substrate at final concentration of 1 uM. Buffer solution was dispensed in control wells. The assay plate was covered with metal lids.\n5; Incubation; 30 min; Incubate at room temperature, protected from lights.\n6; Reagent; 1 uL; Dispensed 5x MTase-Glo detection reagent (R) into the assay plate. The plate was covered with metal lids.\n7; Incubation; 30 min; Incubate the assay plates at room temperature in the dark to allow for SAH to be converted to ADP.\n8; Reagent; 5 uL; Dispense 5 uL of 1x MTase-Glo Detection Solution (R) to allow for ADP to be converted to ATP which was then detected with a luciferase reaction.\n9; Centrifuge; 15 sec; Centrifuge the assay plate for 15 seconds at 1000 RPM.\n10; Incubation; 30 min; Assay plates were incubation at room temperature in the dark.\n11; Detection; Luminescence; Plates were read on ViewLux detector (PerkinElmer). Data were normalized to no-enzyme (0% activity) and no-inhibitor (DMSO; 100%) controls, and the resulting percent inhibition data were fitted to a 4-parameter Hill equation using GraphPad Prism.", "values": [{"smiles": "Cc1cc(C)c2c(N)c(C(=O)NCc3ccc(Cl)cc3)sc2n1", "activity change, negative = inhibition": "inactive: -6.6%"}, {"smiles": "CCOc1ccc(Cc2nc(-c3c(C)nc4ccccn34)cs2)cc1", "activity change, negative = inhibition": "inactive: -1.86%"}, {"smiles": "COc1cc2nc(N3CCN(C(=O)c4ccco4)C4CCCCC43)nc(N)c2cc1OC", "note": "(configuration not stated)", "Potency": "inconclusive [inhibitor, partial curve, poor fit]"}, {"smiles": "COc1ccc2nc(-c3cc(OC)c(OC)c(OC)c3)cc(C(=O)NCC(=O)Nc3ccc(C(C)=O)cc3)c2c1", "activity change, negative = inhibition": "inactive: 0.621%"}, {"smiles": "CC[C@H](c1ccc(O)cc1)[C@@H](CC)c1ccc(O)cc1", "Potency": "inconclusive [inhibitor, partial curve]"}, {"smiles": "C/C=C/c1ccc2oc(-c3ccc(O)c(OC)c3)c(C)c2c1", "activity change, negative = inhibition": "inactive: -3.64%"}, {"smiles": "C[N+]1(CC2COC(c3ccccc3)(c3ccccc3)O2)CCCCC1", "note": "(configuration not stated)", "Potency": "inconclusive [inhibitor, full curve, poor fit]"}, {"smiles": "Cn1sc(=O)n(Cc2ccccc2)c1=O", "Potency": "inconclusive [inhibitor, full curve]"}, {"smiles": "Cc1ccc(F)cc1S(=O)(=O)N[C@@H]1CCN(Cc2ccc(OC(C)C)cc2)C1", "Potency": "inconclusive [inhibitor, partial curve, poor fit]"}, {"smiles": "CNC(=O)c1ccccc1Nc1cc(Nc2ccc(N3CCOCC3)cc2OC)ncc1C(F)(F)F", "activity change, negative = inhibition": "inactive: -10.7%"}, {"smiles": "CCc1nc(C(N)=O)c(Nc2ccc(N3CCC(N4CCN(C)CC4)CC3)c(OC)c2)nc1NC1CCOCC1", "Potency": "inconclusive [inhibitor, partial curve]"}, {"smiles": "CC(C)c1cc(CNc2nc(Nc3cc(C4CC4)[nH]n3)cc(N3CCN(C)CC3)n2)on1", "Potency": "inconclusive [inhibitor, partial curve, poor fit]"}, {"smiles": "COc1cccc(C(=O)NCCNc2nc3cc(C)cc(C)c3cc2C#N)c1", "activity change, negative = inhibition": "inactive: 2.17%"}, {"smiles": "CCCCCOc1ccc(-c2ccc(-c3ccc(C(=O)N[C@H]4C[C@@H](O)[C@@H](O)NC(=O)[C@@H]5[C@@H](O)[C@@H](C)CN5C(=O)[C@H]([C@@H](C)O)NC(=O)[C@H]([C@H](O)[C@@H](O)c5ccc(O)cc5)NC(=O)[C@@H]5C[C@@H](O)CN5C(=O)[C@H]([C@@H](C)O)NC4=O)cc3)cc2)cc1", "note": "({pTerphenylCO(4''-OnC5H11)}-[Orn(4R-OH,5R-OH)]T[Hyp][hTyr(3S-OH,4S-OH)]T[Pro(3S-OH,4S-Me)]; lactam 1-C)", "activity change, negative = inhibition": "inactive: 4.99% [at 51.5 µM]"}, {"smiles": "CC(=O)c1c(OCCN2CCCCC2)c(OCCC(C)c2ccc(F)cc2)c2oc(C)nc2c1C", "note": "(configuration not stated)", "Potency": "inconclusive [inhibitor, partial curve, poor fit]"}, {"smiles": "Cc1cc(N2CCOCC2)cc2[nH]c(-c3c(NC[C@@H](O)c4cccc(Cl)c4)cc[nH]c3=O)nc12", "activity change, negative = inhibition": "inactive: -8.3%"}, {"smiles": "O=C(O)CSc1cc(NS(=O)(=O)c2ccc(Br)cc2)c2ccccc2c1O", "Potency": "inconclusive [inhibitor, partial curve]"}, {"smiles": "C/C(=N\\N=C(N)N)c1cc(NC(=O)CCCCCCCCC(=O)Nc2cc(/C(C)=N/N=C(N)N)cc(/C(C)=N/N=C(N)N)c2)cc(/C(C)=N/N=C(N)N)c1", "Potency": "active: 20 µM"}, {"smiles": "C[C@]12CC[C@@H]3c4ccc(O)c(O)c4CC[C@H]3[C@@H]1CCC2=O", "Potency": "inconclusive [inhibitor, partial curve]"}, {"smiles": "CC[C@@H](C)Nc1cc(C(=O)NC2CC3CC[C@@H](C2)N3c2ccc(C(=O)C3CC3)cn2)c(C)cc1C(N)=O", "note": "(some centres not stated)", "activity change, negative = inhibition": "inactive: 1.41%"}, {"smiles": "COc1c(C)c(C(=O)c2ccc(N)c(C(=O)O)c2)n2ccccc12", "Potency": "inactive"}, {"smiles": "CCC1C(=O)N(C)c2cnc(Nc3ccc(C(=O)NC4CCN(C)CC4)cc3OC)nc2N1C1CCCC1", "note": "(configuration not stated)", "Potency": "inconclusive [inhibitor, partial curve]"}, {"smiles": "COc1cc(N2CCC(O)CC2)ccc1Nc1nc(Nc2ccccc2S(=O)(=O)C(C)C)c2[nH]cnc2n1", "Potency": "inconclusive [inhibitor, partial curve, poor fit]"}, {"smiles": "O=C(O)c1cc(N(Cc2ccc(C3CCCCC3)cc2)C(=O)c2ccc(Oc3ccccc3)cc2)ccc1O", "Potency": "active: 30.8 µM"}, {"smiles": "C[C@@H](Oc1cc(-n2cnc3ccc(OC4CCN(C)CC4)cc32)sc1C(N)=O)c1ccccc1C(F)(F)F", "Potency": "active: 12.6 µM"}, {"smiles": "O=C(Nc1ccc(S(=O)(=O)C(F)(F)F)cc1)C1=CCN(c2ncccc2C(F)(F)F)CC1", "activity change, negative = inhibition": "inactive: 2.21%"}, {"smiles": "Cc1cc(Nc2cc(CN3CCOCC3)c3nc(C)c(Cc4ccc(Cl)cc4F)n3n2)n[nH]1", "Potency": "active: 20.5 µM"}]}]}
